Data published in the supplement of paper PMC11417369.
Some of the results follow.

Tested on: PfSIP2 AP2 domain 1 (GST-tagged)
Assay: gcPBM binding intensity (ln(normalized median fluorescence intensity)); higher = stronger DNA binding
Method in brief: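 In this array assay, P. falciparum DNA-binding domains with a GST tag, expressed in E. coli, were applied for 1 h to primer-extended double-stranded 36-bp intergenic genomic probes and negative controls on an Agilent 4 × 180k array. Bound protein was visualised with Alexa488 anti-GST antibody at 488 nm. Binding intensity is the highest Masliner-normalised natural-log median intensity across replicate spots of either probe orientation.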

Sequence	gcPBM binding intensity (ln)
TCCAATTAAATATATGAACACACATGTGAACTTTCT [CACACA_site9318]	6.78
GGGGGTAGGGGAAGAAGTACAATGATCACTACAGTA [XGTACX_site1169]	8.75
TTTTTTATTAAAAGCGAAAAAAATGAAAACTTTTTT [GTGCAC_negctrl_site605]	6.61
TTTTTAATTAACTTTGTAAACTTATATATATATATA [TGCATGCA_negctrl_site311]	9.33
TTAAAGCACCCATGCACACACACAAGGGAAAAGAAA [CACACA_site4289]	9.41
AAGGAATATTAAGTGGGTACTAAAAAAAAATTAATT [XGTACX_site331]	7.01
GAAGTAGATGGAAAAGTGCACTGTAATGGTTATATT	10.3
TGTATATAGAAACATACACACATATTAATTTTACAT [CACACA_site3126]	7.09
ATTTTTAATCATTTACAACCTAGTGATTATACAAAT [CACACA_negctrl_site1089]	6.92
CGTATGCGTATATACACACCCACGTATATATATAAA [CACACA_site3200]	7.09
ATATAATAATTGTACACATGCACACACAAATATTAT [TGCATGCA_site204]	7.87
ATAGCCAAAAATCATGCACACCTAAAAAAAAAAAAA [CACACA_site8826]	7.21
TATATTTATGTATATGTGCACATAAATTTAAGAATG [GTGCAC_site9512]	8.33
GTATATATATTTGTACGTACATATTGTTGTAAACAC [XGTACX_site8833]	7.37
AAGAGAGACATCAACACACATACGTATGTATAGAAA [CACACA_site1397]	6.74
TTTTTTATTGTGATACGTATATTATTTTATGATTAA [GTGCAC_negctrl_site202]	7.02
TTCATTTTAATAATATGTACATAATATATTTAAAAA [XGTACX_site634]	7.43
ATTTTTTTTTTTATAGTGGAACCACATTTGCCATTT [CACACA_negctrl_site1247]	6.88
TATTAAATGAAACAAACACACATAGCCTTTAAATAT [CACACA_site1560]	7.02
TTAGGACAAAAAAAAATAAAAATAAAATAAAATAAT [CACACA_negctrl_site1613]	6.77
AAATTATATATATTTACATGCAATATAATGAAATAA [TGCATGCA_site229]	6.78
ATAAAATAAAACAGAGCACACATTTTATTTACATTC [CACACA_site696]	6.89
ATATATATATCATATTGTACATATTATTGTATAATC [XGTACX_site5020]	7.87
ATATAAACATGTTTGTGTACGTAATATGAAAAATAA [XGTACX_site8157]	7.4
